Results as given in PMC4336329 (PLoS ONE, 2015).
Out of some 310,000 compounds screened, about 2,200 (0.71%) showed an effect of 50% or more. Effects have a minus sign here. The list shows a part of the results.

What follows are molecules tested against human ether-à-go-go-related gene (hERG) potassium channel (human, UniProt Q12809) (assay: primary screen, population patch clamp on CHO cells stably expressing hERG).
Chain of human ether-à-go-go-related gene (hERG) potassium channel (Q12809 whole entry, looked up): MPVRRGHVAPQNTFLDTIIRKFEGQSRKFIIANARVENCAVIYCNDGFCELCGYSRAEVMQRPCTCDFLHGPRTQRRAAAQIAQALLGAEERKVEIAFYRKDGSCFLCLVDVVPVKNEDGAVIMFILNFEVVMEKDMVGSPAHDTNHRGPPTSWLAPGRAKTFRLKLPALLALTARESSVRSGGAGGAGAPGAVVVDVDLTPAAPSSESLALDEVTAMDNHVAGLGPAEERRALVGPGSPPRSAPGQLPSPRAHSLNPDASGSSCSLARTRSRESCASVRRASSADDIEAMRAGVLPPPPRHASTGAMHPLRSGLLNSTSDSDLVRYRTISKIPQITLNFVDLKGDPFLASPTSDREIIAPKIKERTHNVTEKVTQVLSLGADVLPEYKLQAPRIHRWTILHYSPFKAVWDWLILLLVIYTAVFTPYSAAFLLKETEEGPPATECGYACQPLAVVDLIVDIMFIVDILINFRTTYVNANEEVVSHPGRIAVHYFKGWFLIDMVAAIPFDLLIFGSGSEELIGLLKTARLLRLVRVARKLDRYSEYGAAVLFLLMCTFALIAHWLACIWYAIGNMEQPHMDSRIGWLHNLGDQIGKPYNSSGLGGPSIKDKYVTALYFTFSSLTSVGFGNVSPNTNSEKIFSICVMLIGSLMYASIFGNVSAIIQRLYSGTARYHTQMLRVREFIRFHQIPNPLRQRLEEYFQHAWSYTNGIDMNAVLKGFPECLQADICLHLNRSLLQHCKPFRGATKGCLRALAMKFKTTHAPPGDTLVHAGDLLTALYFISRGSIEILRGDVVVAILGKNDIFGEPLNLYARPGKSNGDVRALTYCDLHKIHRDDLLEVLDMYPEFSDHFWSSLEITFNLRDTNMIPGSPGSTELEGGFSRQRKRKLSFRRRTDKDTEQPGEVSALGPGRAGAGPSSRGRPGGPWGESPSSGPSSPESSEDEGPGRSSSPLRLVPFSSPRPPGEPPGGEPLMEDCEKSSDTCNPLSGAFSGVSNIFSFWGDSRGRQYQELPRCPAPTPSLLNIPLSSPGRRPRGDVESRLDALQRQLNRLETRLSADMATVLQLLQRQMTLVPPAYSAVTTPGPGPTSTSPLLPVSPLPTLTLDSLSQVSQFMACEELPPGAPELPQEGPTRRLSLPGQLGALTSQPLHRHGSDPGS

SMILES | hERG current change (%, negative = inhibition) at 1uM [%]
Cc1ccc(NC(=O)COc2ccccc2C(=O)NCc2ccccc2)cc1 | -15.5
O=C(COC(=O)[C@@H]1CCCN1S(=O)(=O)c1ccc(Cl)cc1)NCC(F)(F)F | 13.8
CC(=O)CC(c1ccccc1)c1c(O)c2ccccc2oc1=O.[Na] (stereo not shown) | 15.2
COC(=O)/C=c1/sc2nc3ccccc3n2c1=O | 6.81
CS(=O)(=O)NN1C(=O)c2ccccc2NC1c1ccccc1 (stereo not shown) | 11
O=P(c1ccccc1)(c1ccccc1)C(c1ccco1)N1CCOCC1 (stereo not shown) | 14.2
COc1cc(C2C(C#N)=C(N)Oc3cc(C)oc(=O)c32)ccc1OC(=O)N1CCOCC1 (stereo not shown) | -3.47
O=C(O)c1ccc(/C=C2\SC(=S)N(NC(=O)c3ccc(Br)cc3)C2=O)cc1 | 0.175
CCN1C(=O)C2(C(C(=O)c3cc4ccccc4o3)=C(O)C(=O)N2CCCN2CCOCC2)c2ccccc21 (stereo not shown) | 10.6
COC(=O)c1ccc(-n2c(C)cc(C(=O)COC(=O)CC3Sc4ccccc4NC3=O)c2C)cc1 (stereo not shown) | 9.47
COc1ccc(-c2ccc(N)cn2)cn1 | 15.9
CCCC(c1nnnn1Cc1cccs1)N1CCN(C2CCCC2)CC1.Cl (stereo not shown) | -8.2
CCCc1nn(C)c(C(=O)Nc2cccc(C)c2)c1Cl | 13.9
O=C(Nc1ccccc1C(=O)NCc1ccccc1)c1ccco1 | 10.1
Cc1cc([N+](=O)[O-])nn1Cc1c(F)c(F)c(F)c(F)c1F | 2.91
CCC(NC(=O)CNC(=O)CNC(=O)c1ccc(Cl)cc1Cl)c1ccc(C)cc1 (stereo not shown) | 20.4
COc1cccc(CN(C)CC2CCCN(CCc3ccc(Cl)cc3)C2)c1OC (stereo not shown) | -3.32
CC1CC(C)CN(C(=O)c2ccc(Br)c(S(=O)(=O)N3CCOCC3)c2)C1 (stereo not shown) | 6.63
Cc1ccc(CS(=O)(=O)c2ccc(C(=O)N3CCN(c4ccccn4)CC3)cc2[N+](=O)[O-])cc1 | 1.35
Nc1nc(N2CCOCC2)nc(N(c2ccccc2)c2ccccc2)n1 | 4.13
COc1ccc2[nH]c3c(=S)nc[nH]c3c2c1 | 12.7
O=C(O)C1CCCCC1C(=O)Nc1ccccn1 (stereo not shown) | 14.9

SMILES | hERG current change (%, negative = inhibition) at 1uM [%]
COc1ccccc1NC(=O)C(C)OC(=O)C1CCC(C(C)(C)C)CC1 (stereo not shown) | 9.4
COc1ccc(OCC(=O)NNC(=O)C(=O)Nc2ccc(C)cc2)cc1 | 11.1
CC(C)c1ccc(NS(=O)(=O)c2ccc(Cl)nc2)cc1 | 15.6
Cc1cccc(CCNC(=O)CCc2c(C)nc3ncnn3c2C)c1 | 4.74
CCOC(=O)CN1C(=O)C(=O)N(Cc2c(Cl)cccc2Cl)C1=O | 13.8
COC(=O)c1cc(COc2ccc3c4c(c(=O)oc3c2)CCCC4)c(C)o1 | -0.702
CCC(Sc1nnc2c3ccccc3n(CC)c2n1)C(=O)Nc1sc2c(c1C#N)CCCC2 (stereo not shown) | -4.27
COc1ccc2cc(C)c3nnc(SCC(=O)Nc4nc(-c5ccc(F)cc5)cs4)n3c2c1 | 6.19
CCCSc1ccc2nc(NC(=O)OC)[nH]c2c1 | 11.2
COc1ccc(CN2CCN(c3ncccn3)CC2)c(C)c1C | -3.18
CC(=O)NC(Cc1ccccc1)C(C)=O (stereo not shown) | -3.72
COCCCNC(=O)/C=C/c1ccc(Cl)cc1Cl | 3.21
Cc1ccc(-c2nc3ncccc3o2)cc1NC(=O)C(C)C | 13.5
CCOc1ccc(OCC)c(S(=O)(=O)n2cc(C)nc2CC)c1 | 26.7
O=C(CN1CCN(C(=O)CNC(=O)c2ccc3c(c2)OCO3)CC1)Nc1cccc(F)c1 | 10.4
CCN1/C(=c2/s/c(=C3/C(=O)N(c4ccccc4)N=C3C)n(CC)c2=O)C=Cc2ccccc21 | -5.43
CCCc1nn(C)c2c1C(c1cccnc1)C(C#N)=C(N)O2 (stereo not shown) | 13.8
COc1ccc(OC)c(NC(=O)c2ccc3c(c2)CCN3S(C)(=O)=O)c1 | 12.7
COc1ccccc1NS(=O)(=O)c1cccc(C(=O)N/N=C(\C)c2ccc3c(c2)OCCO3)c1 | 6.92
O=C(Nc1cccc(S(=O)(=O)Nc2ccccc2F)c1)c1ccc2ccccc2n1 | 10.5
COc1ccc(/C=N/NC(=O)c2ccc(CN3C(=O)c4cccc5cccc3c45)cc2)cc1O | 4.23
Cc1ccn(C(=O)c2cc3c(C)nn(-c4ccccc4)c3s2)n1 | 9.37

SMILES | hERG current change (%, negative = inhibition) at 1uM [%]
S=c1nccc(-c2cc(Cl)sc2Cl)[nH]1 | -1.94
CCCC(=O)Nc1nc(C)c(C(C)=O)s1 | 7.11
O=C(COC(=O)CCC(=O)c1ccccc1)NNC(=O)c1ccc(Cl)cc1 | 11.1
CC(C)c1ccc(-c2nc(N3CCCCC3)[nH]c(=O)c2C#N)cc1 | 12.6
O=C(COc1ccc(Br)cc1Cl)NC(=S)Nc1ccccn1 | 20.8
COc1ccc(-c2nnc(SCC(=O)Nc3ccc4c(c3)OCCO4)n2N)cc1OC | 13.2
O=C(O)C1CC(c2ccccc2)=Nc2ccccc2S1 (stereo not shown) | 5.39
CCOC(=O)c1cc2c(=O)[nH]c(C(Cl)(Cl)Cl)nc2o1 | -0.458
COc1ccc(NC(=O)CCSc2nc(C)cs2)cc1 | 13.3
Cc1ccc(NC(=O)CSCC(=O)N(C)CC(=O)Nc2cccc(F)c2)cc1 | -7.8
O=C(CCl)N1N=C(c2cccs2)CC1c1ccco1 (stereo not shown) | 12.6
CCC(=O)Nc1c(-c2ccc(C)cc2)c(=O)c2ccccc2n1C | 5.39
O=C1CCC(C(=O)N2CCc3ccccc3C2)CN1CCCN1CCOCC1 (stereo not shown) | 16.3
COc1cccc(/C=N/n2c(-c3cccs3)n[nH]c2=S)c1 | 19.4
CC(NC(=O)CCNC(=O)c1ccco1)c1ccc(F)cc1 (stereo not shown) | 11.3
CCOc1ccc(-c2[nH]ncc2-c2ccc(OC)c(OC)c2)c(O)c1 | 10.3
O=C(COc1ccc(Cl)cc1)Nc1nnc(-c2ccc3c(c2)CCCC3)o1 | 15.8
O=C(NC1CCN(C(=O)NCc2ccccc2)CC1)c1cccc(F)c1 | 11.3
C/C(=N\Nc1c([N+](=O)[O-])c(C)nn1C)c1ccc(F)cc1F | 10.3
C/C(=N\N1CCCCC1c1cccnc1)c1c(O)n(C2CCCCC2)c(=S)[nH]c1=O (stereo not shown) | 7.92
O=[N+]([O-])c1cccc(-c2ccc(/C=N/Nc3nc(N4CCCCC4)nc(N4CCCCC4)n3)o2)c1 | 8.37
O=C(NCc1ccc(Cl)cc1)C1CCC(=O)N(C2CCCCCC2)C1 (stereo not shown) | 6.46

SMILES | hERG current change (%, negative = inhibition) at 1uM [%]
COc1ccc(Cc2noc(CN3CCNC(=O)CC3)n2)cc1OC | 9.84
CC(C)C(Nc1ncnc2c1oc1ccccc12)C(=O)O (stereo not shown) | -4.03
CCOC(=O)c1c(SC)[nH]c2c(Cl)cccc2c1=O | 9.9
COc1ccc(C)cc1NC(=O)CN(Cc1nnc(-c2ccc(Cl)cc2)o1)C1CCCC1 | 3.28
CCCCCCn1cc(C(=O)O)c(=O)c2ccccc21 | -84.4
O=C(CSCc1ccc(Cl)cc1)NCC1CCCO1 (stereo not shown) | -2.31
CCOC(=O)C1CNc2cc(S(=O)(=O)CC)ccc2O1 (stereo not shown) | -2.32
Cl.c1ccc(Nc2nc(NCc3ccco3)c3ccccc3n2)cc1 | -9.4
Cc1ccc(S(=O)(=O)N(Cc2ccccc2Cl)C(=O)N2CCN(C)CC2)cc1 | 9.99
COc1cc(C)c(Cl)cc1S(=O)(=O)NCCN1CCOCC1 | 17.5
CCN(CC(=O)NCc1ccc(Cl)cc1)C(=O)CNS(=O)(=O)c1ccc(NC(C)=O)cc1 | 28.3
CCOc1ccc(OCC(=O)c2c(O)c3ccccc3oc2=O)cc1 | -6.17
Cc1ccc(C2CC(c3cccs3)=NN2C(=O)CCl)cc1 (stereo not shown) | 12.8
COc1ccc(Cl)cc1C1=CC(=O)C[C@H](c2ccc(F)cc2)C1 | 5.92
COC(=O)c1ccc(CNC(=O)c2ccc3c(c2)OCCO3)cc1 | 11.4
COC(=O)c1c(NC(=O)CSc2ncnc3c2cnn3-c2ccccc2Cl)sc2c1CCCC2 | 11.3
CCOC(=O)C1CCN(C(=O)CNC(=O)c2nn(-c3ccc(OC)cc3OC)c(=O)c3ccccc23)CC1 | 20.6
O=C(Nc1ccccc1[N+](=O)[O-])C1=C(O)CCn2c1nc1ccccc12 | 25.9
CCc1ccc(NC(=O)CSc2nnc(Cc3cccn3C)n2-c2ccc(F)cc2)cc1 | -1.58
O=C(N/N=C/c1ccc2c(c1)OCO2)c1cccc(NC(=O)c2ccccc2Cl)c1 | 10.3
COc1ccc(C)cc1S(=O)(=O)N(CC(=O)NC1CCCC1)c1ccc(F)cc1 | 1.64
Cn1ccs/c1=N\S(=O)(=O)c1ccc(Br)cc1 | 18.8
